Results taken from article PMC11995724, “Antibiotic target discovery by integrated phenotypic and activity-based profiling of electrophilic fragments” (Cell chemical biology, 2025).
The whole screen tested about 3,200 compounds, of which about 110 (3.4%) showed an effect of 50% or more. The list shows a part of the results.

test system: T1, V. cholerae SAD30; parameters: species or system S. aureus MSSA476 (TSB) or V. cholerae SAD30 (LB); 384-well bacterial growth screen at 25 uM, OD600 relative to DMSO control; conditions: relative growth, OD600, LB; 25 µM; inhibitor
T1 construct: SAD30

Row | SMILES | % of control remaining
1 | Cn1c(N)c(C(=O)CCl)c(=O)[nH]c1=O [10-I16, 6-amino-5-(2-chloroacetyl)-1-methyl-1,2,3,4-tetrahydropyrimidine-2,4-dione] | 105.513%
2 | N#CC(=Cc1sc2ccccc2c1Cl)C(=O)NC1CC1 [9-C18, 3-(3-chloro-1-benzothiophen-2-yl)-2-cyano-N-cyclopropylprop-2-enamide] | 72.8076%
3 | CC(Cl)C(=O)Nc1ccc2oc(=O)n(CCN(C)C)c2c1 (centres unmarked) [5-L19, 2-chloro-N-{3-[2-(dimethylamino)ethyl]-2-oxo-2,3-dihydro-1,3-benzoxazol-5-yl}propanamide] | 98.0141%
4 | CN(CC(=O)Nc1ccccc1Cl)C(=O)CCl [4-D05, 2-chloro-N-{[(2-chlorophenyl)carbamoyl]methyl}-N-methylacetamide] | 105.413%
5 | CSc1ccc(C=C(C#N)C(=O)Nc2c(C)cc(C)cc2C)cc1 [8-G15, 2-cyano-3-[4-(methylsulfanyl)phenyl]-N-(2,4,6-trimethylphenyl)prop-2-enamide] | 74.1672%
6 | CC(=O)c1ccc(S(=O)(=O)N2CCN(C(=O)CCl)CC2)cc1 [5-P16, 1-[4-(4-acetylbenzenesulfonyl)piperazin-1-yl]-2-chloroethan-1-one] | 98.8547%
7 | O=C1C=CC(=O)N1c1ccc(OC(F)(F)F)cc1 [10-J19, 1-[4-(trifluoromethoxy)phenyl]-2,5-dihydro-1H-pyrrole-2,5-dione] | 30.0799%
8 | N#CC(=Cc1ccc(F)cc1)C(=O)Nc1cccc2ncccc12 [9-C21, 2-cyano-3-(4-fluorophenyl)-N-(quinolin-5-yl)prop-2-enamide] | 89.9388%
9 | N#CC(C(=O)N1CCCCC1)=C1N=C(N)c2ccccc21 [9-A21, 2-(3-amino-1H-isoindol-1-ylidene)-3-oxo-3-(piperidin-1-yl)propanenitrile] | 85.86%
10 | CC(=O)NCCc1cc(C(=O)CCl)ccc1F [10-O05, N-{2-[5-(2-chloroacetyl)-2-fluorophenyl]ethyl}acetamide] | 118.138%
11 | O=C(CCl)NCCC1CCCC1(F)F (centres unmarked) [7-P04, 2-chloro-N-[2-(2,2-difluorocyclopentyl)ethyl]acetamide] | 89.8728%
12 | C=CC(=O)N1CCC(C(=O)NCc2ncc(N(C)C)cn2)CC1 [3-L03, N-{[5-(dimethylamino)pyrimidin-2-yl]methyl}-1-(prop-2-enoyl)piperidine-4-carboxamide] | 104.793%
13 | C=CC(=O)NC(c1ccc(F)cc1)c1ccccn1 (centres unmarked) [3-N14, N-[(4-fluorophenyl)(pyridin-2-yl)methyl]prop-2-enamide] | 101.617%
14 | N#CC(=Cc1csc2ccccc12)C(=O)NCc1ccco1 [9-D16, 3-(1-benzothiophen-3-yl)-2-cyano-N-[(furan-2-yl)methyl]prop-2-enamide] | 79.6057%
15 | CC(NC(=O)C(C#N)=Cc1cccc(Cl)c1Cl)c1ccccc1 (centres unmarked) [9-N04, 2-cyano-3-(2,3-dichlorophenyl)-N-(1-phenylethyl)prop-2-enamide] | 92.3861%
16 | O=C(CCl)N(Cc1ccc2c(c1)CCO2)C1CCCC1 [6-L11, 2-chloro-N-cyclopentyl-N-[(2,3-dihydro-1-benzofuran-5-yl)methyl]acetamide] | 89.7905%
17 | C#CCN(C(=O)c1ccc(NC(=O)C=C)cc1)C1CCCCC1 [3-D13, N-cyclohexyl-4-(prop-2-enamido)-N-(prop-2-yn-1-yl)benzamide] | 98.0886%
18 | CC(Cl)C(=O)N1CCOC(c2ccnc(N(C)C)n2)C1 (centres unmarked) [6-L05, 2-chloro-1-{2-[2-(dimethylamino)pyrimidin-4-yl]morpholin-4-yl}propan-1-one] | 81.4485%
19 | O=C(CCl)NCCc1c[nH]c2c(F)c(F)c(F)cc12 [7-H16, 2-chloro-N-[2-(5,6,7-trifluoro-1H-indol-3-yl)ethyl]acetamide] | 90.4015%
20 | O=C(CCl)c1cc(Cl)sc1Cl [10-D16, 2-chloro-1-(2,5-dichlorothiophen-3-yl)ethan-1-one] | 21.5079%
21 | Cc1cc(C(=O)CCl)c(C)[nH]1 [10-J08, 2-chloro-1-(2,5-dimethyl-1H-pyrrol-3-yl)ethan-1-one] | 99.1233%
22 | CC(Cl)C(=O)N1Cc2cnn(C)c2C1 (centres unmarked) [7-K09, 2-chloro-1-{1-methyl-1H,4H,5H,6H-pyrrolo[3,4-c]pyrazol-5-yl}propan-1-one] | 81.282%

Row | SMILES | % of control remaining
23 | CC(Cl)C(=O)NCCNC(=O)c1ccoc1 (centres unmarked) [7-E21, 2-chloro-N-{2-[(furan-3-yl)formamido]ethyl}propanamide] | 84.454%
24 | O=C(CCl)c1ccc(F)cc1F [10-I18, 2-chloro-1-(2,4-difluorophenyl)ethan-1-one] | 22.7547%
25 | C=CC(=O)NCC1CN(Cc2cccc(C)c2)CCO1 (centres unmarked) [3-A05, N-({4-[(3-methylphenyl)methyl]morpholin-2-yl}methyl)prop-2-enamide] | 122.966%
26 | C=CC(=O)NCCc1coc(-c2ccc(C)cc2)n1 [1-M06, N-{2-[2-(4-methylphenyl)-1,3-oxazol-4-yl]ethyl}prop-2-enamide] | 81.3154%
27 | C=CC(=O)NC(C)c1ccc2c(c1)CCC2 (centres unmarked) [3-F09, N-[1-(2,3-dihydro-1H-inden-5-yl)ethyl]prop-2-enamide] | 89.0902%
28 | CCCNC(=O)C(C#N)=Cc1ccc(-n2cncn2)c(C)c1 [9-C05, 2-cyano-3-[3-methyl-4-(1H-1,2,4-triazol-1-yl)phenyl]-N-propylprop-2-enamide] | 87.7634%
29 | C=CC(=O)NCc1cc(Cl)c2c(c1)OCO2 [2-F15, N-[(7-chloro-1,3-dioxaindan-5-yl)methyl]prop-2-enamide] | 80.469%
30 | O=C(CCl)NC1CCN(C(=O)c2ccco2)c2ccccc21 (centres unmarked) [5-O07, 2-chloro-N-[1-(furan-2-carbonyl)-1,2,3,4-tetrahydroquinolin-4-yl]acetamide] | 100.368%
31 | CC(Cl)C(=O)N1CCN(C(=O)Cc2cccc(Cl)c2)C(C)C1 (centres unmarked) [7-E20, 2-chloro-1-{4-[2-(3-chlorophenyl)acetyl]-3-methylpiperazin-1-yl}propan-1-one] | 74.6737%
32 | COCC(NC(=O)C(C)Cl)c1cccc(C#N)c1 (centres unmarked) [6-L19, 2-chloro-N-[1-(3-cyanophenyl)-2-methoxyethyl]propanamide] | 89.4872%
33 | O=C(CCl)N(Cc1ccco1)C12CC3CC(CC(C3)C1)C2 [4-J18, N-(adamantan-1-yl)-2-chloro-N-[(furan-2-yl)methyl]acetamide] | 70.5629%
34 | O=C(CCl)NCC1CCN(C(=O)c2ccccc2)CC1 [7-L06, N-[(1-benzoylpiperidin-4-yl)methyl]-2-chloroacetamide] | 86.5686%
35 | C=CC(=O)N(Cc1cc(C)c2ncccc2c1)C(C)C1CCCO1 (centres unmarked) [1-P15, N-[(8-methylquinolin-6-yl)methyl]-N-[1-(oxolan-2-yl)ethyl]prop-2-enamide] | 91.1809%
36 | CC(c1ccc(S(N)(=O)=O)cc1)N(C)C(=O)CCl (centres unmarked) [7-H12, 2-chloro-N-methyl-N-[1-(4-sulfamoylphenyl)ethyl]acetamide] | 82.6037%
37 | Cc1c(C(=O)N2CCN(C(=O)C(C)Cl)CC2)sc2ccccc12 (centres unmarked) [7-H09, 2-chloro-1-[4-(3-methyl-1-benzothiophene-2-carbonyl)piperazin-1-yl]propan-1-one] | 76.524%
38 | CC(C)CN(C(=O)CCl)C1CCS(=O)(=O)C1 (centres unmarked) [4-D12, 2-chloro-N-(1,1-dioxo-1lambda6-thiolan-3-yl)-N-(2-methylpropyl)acetamide] | 102.135%
39 | C=CC(=O)N(C1CCCC1)C(C)c1nnc2ccccn12 (centres unmarked) [2-B07, N-cyclopentyl-N-(1-{[1,2,4]triazolo[4,3-a]pyridin-3-yl}ethyl)prop-2-enamide] | 90.8135%
40 | Cn1ncc(C(=O)CCl)n1 [10-J10, 2-chloro-1-(2-methyl-2H-1,2,3-triazol-4-yl)ethan-1-one] | 112.838%
41 | C=CC(=O)NC1CCCN(Cc2ccccc2)C1 (centres unmarked) [1-K12, N-(1-benzylpiperidin-3-yl)prop-2-enamide] | 78.7743%
42 | CCC(C)c1ccccc1NC(=O)CCl (centres unmarked) [6-K11, N-[2-(butan-2-yl)phenyl]-2-chloroacetamide] | 86.4537%
43 | COc1cc(NC(=O)CCl)cc(OC)c1 [4-G09, 2-chloro-N-(3,5-dimethoxyphenyl)acetamide] | 105.068%
44 | Cc1cccc(NC(=O)CCl)c1C [4-D04, 2-chloro-N-(2,3-dimethylphenyl)acetamide] | 113.004%

Row | SMILES | % of control remaining
45 | CNC(=O)C(F)(F)C1(O)CCN(C(=O)CCl)CC1 [5-F03, 2-[1-(2-chloroacetyl)-4-hydroxypiperidin-4-yl]-2,2-difluoro-N-methylacetamide] | 95.9966%
46 | CC(Cl)C(=O)N1CCN(Cc2ccnn2C)CC1 (centres unmarked) [7-I22, 2-chloro-1-{4-[(1-methyl-1H-pyrazol-5-yl)methyl]piperazin-1-yl}propan-1-one] | 88.9476%
47 | N#CC(=Cc1ccco1)C(=O)NS(=O)(=O)c1cccc2cnccc12 [9-H20, 2-cyano-3-(furan-2-yl)-N-(isoquinoline-5-sulfonyl)prop-2-enamide] | 87.6275%
48 | CC(Cl)C(=O)Nc1ccc(S(=O)(=O)N2CCCC2)cc1 (centres unmarked) [6-M13, 2-chloro-N-[4-(pyrrolidine-1-sulfonyl)phenyl]propanamide] | 90.7005%
49 | C=CC(=O)NCCc1ccc(S(C)(=O)=O)cc1 [2-A14, N-[2-(4-methanesulfonylphenyl)ethyl]prop-2-enamide] | 89.5783%
50 | CC(Cl)C(=O)NCCc1nnc(C(C)C)s1 (centres unmarked) [7-E03, 2-chloro-N-{2-[5-(propan-2-yl)-1,3,4-thiadiazol-2-yl]ethyl}propanamide] | 92.2518%
51 | C=CC(=O)NCc1nc(C(C)(C)O)n[nH]1 [2-E15, N-{[3-(2-hydroxypropan-2-yl)-1H-1,2,4-triazol-5-yl]methyl}prop-2-enamide] | 92.8206%
52 | CC(Cl)C(=O)N1CCN(C(C)c2cccc(C#N)c2)CC1 (centres unmarked) [7-P22, 3-{1-[4-(2-chloropropanoyl)piperazin-1-yl]ethyl}benzonitrile] | 96.7454%
53 | Cc1cc(N(CCC#N)C(=O)CCl)ccc1Cl [4-K15, 2-chloro-N-(4-chloro-3-methylphenyl)-N-(2-cyanoethyl)acetamide] | 98.6845%
54 | C=CC(=O)Nc1nc(Cc2ccccc2)c(C)s1 [1-B16, N-(4-benzyl-5-methyl-1,3-thiazol-2-yl)prop-2-enamide] | 87.0952%
55 | Cc1ccc(NC(=O)C(C#N)=Cc2ccsc2)c(C)c1 [9-M19, 2-cyano-N-(2,4-dimethylphenyl)-3-(thiophen-3-yl)prop-2-enamide] | 88.1713%
56 | N#CC(=Cc1ccccc1O)C(=O)Nc1cccc2ncccc12 [9-G04, 2-cyano-3-(2-hydroxyphenyl)-N-(quinolin-5-yl)prop-2-enamide] | 94.6975%
57 | COCc1noc(CN2CCN(C(=O)C(C)Cl)CC2)n1 (centres unmarked) [7-I06, 2-chloro-1-(4-{[3-(methoxymethyl)-1,2,4-oxadiazol-5-yl]methyl}piperazin-1-yl)propan-1-one] | 83.2645%
58 | CC(Cl)C(=O)NCc1conc1C1CCC1 (centres unmarked) [5-L21, 2-chloro-N-[(3-cyclobutyl-1,2-oxazol-4-yl)methyl]propanamide] | 101.713%
59 | N#CC(=Cc1cc2c(cc1[N+](=O)[O-])OCO2)C(=O)NC1CCCCC1 [8-F22, 2-cyano-N-cyclohexyl-3-(6-nitro-1,3-dioxaindan-5-yl)prop-2-enamide] | 83.6846%
60 | C=CC(=O)Nc1cc(-c2ccco2)nn1C(C)(C)C [1-K19, N-[1-tert-butyl-3-(furan-2-yl)-1H-pyrazol-5-yl]prop-2-enamide] | 90.1345%
61 | CC(C)C(NC(=O)CCl)c1ccc(Cl)cc1F (centres unmarked) [7-J22, 2-chloro-N-[1-(4-chloro-2-fluorophenyl)-2-methylpropyl]acetamide] | 94.8951%
62 | C=CC(=O)N1CCC(C(=O)N[C@H]2CCO[C@@H]2c2cccnc2)CC1 (racemic) [2-G20, rac-1-(prop-2-enoyl)-N-[(2R,3S)-2-(pyridin-3-yl)oxolan-3-yl]piperidine-4-carboxamide] | 97.2981%
63 | N#CC(=Cc1ccco1)C(=O)Nc1cccc2ncccc12 [8-B20, 2-cyano-3-(furan-2-yl)-N-(quinolin-5-yl)prop-2-enamide] | 75.7988%
64 | CC(Cl)C(=O)N1CCn2c(cc3c(Cl)cccc32)C1 (centres unmarked) [7-D17, 2-chloro-1-{9-chloro-1H,2H,3H,4H-pyrazino[1,2-a]indol-2-yl}propan-1-one] | 54.3202%
65 | N#CC(=Cc1cccs1)C(=O)Nc1cccc2ccccc12 [9-M22, 2-cyano-N-(naphthalen-1-yl)-3-(thiophen-2-yl)prop-2-enamide] | 90.6186%
